# Test results taken from FireProtDB.
# Values joined by “and” are separate entries in the source; they are usually repeats but may differ in a detail not shown here. Equal entries are not always repeated.
# [1] = Homo sapiens, pH 5, 20 °C, GdnHCl, CD, Sodium acetate 0.01 M, reversible: yes
# [2] = Homo sapiens, pH 7, 20 °C, Urea, CD, Sodium phosphate 10 mM, reversible: no
# [3] = Homo sapiens, 25 °C, Urea, Fluorescence, transition: 2
# [4] = Gallus gallus, pH 0.9, 25 °C, GdnHCl, CD, Unknown, KCl 0.6 M, reversible: yes
# [5] = Gallus gallus, pH 0.9, 25 °C, GdnHCl, CD, Unknown, KCl 0.6 M, transition: 3, reversible: yes
# [6] = Gallus gallus, pH 2.2, 25 °C, GdnHCl, CD, Unknown, KCl 0.6 M, reversible: yes
# [7] = Gallus gallus, pH 2, Thermal, DSC, Unknown, reversible: Unknown
# [8] = Gallus gallus, pH 5.2, 20 °C, GdnHCl, CD, NaOAc 20 mM, reversible: Unknown
# [9] = Gallus gallus, pH 7.5, 25 °C, Thermal, CD, Sodium phosphate 0.01 M, NaCl 0.15 M, reversible: yes
# [10] = Gallus gallus, pH 3, Thermal, DSC, glycine 0.05 M, reversible: yes
# [11] = Gallus gallus, pH 3.8, Thermal, NMR, sodium acetate 240 mM, reversible: yes
# [12] = Gallus gallus, pH 2, Thermal, DSC, glycine 0.04 M, reversible: yes
# [13] = Gallus gallus, pH 3.8, Thermal, DSC, glycine-HCl 50 mM, reversible: Unknown
substance,measurement,setting,value
Alpha-1-acid glycoprotein 1 wild type (sequence left out),denaturant midpoint (higher = more stable),[1],2.1 M
same,unfolding free energy,[1],5.1 kcal/mol
same,Tm,"Homo sapiens, pH 5.25, Thermal, CD, glycylglycine 0.05 M, reversible: yes",46.6 °C
Beta-2-microglobulin wild type (sequence left out),Tm,"Homo sapiens, pH 7, Thermal, fluorescence, reversible: Unknown",60.1 °C
Beta-2-microglobulin wild type (sequence not shown),Tm,"Homo sapiens, pH 8, Thermal, CD, Tris-HCl 20mM, NaCl 150mM, reversible: Unknown",62.4 °C
Fibroblast growth factor 2 wild type (letters omitted),denaturant midpoint (higher = more stable),[2],2.3 M
same,unfolding free energy,[2],6.5 kcal/mol
Fibroblast growth factor 2 wild type (no sequence given),unfolding free energy,"Homo sapiens, pH 6.2, 25 °C, GdnHCl, DSC, N-(2-acetamino)iminodiacetic acid (ADA) 20 mM, NaCl 0.1 M, reversible: yes",5.08 kcal/mol
same,unfolding free energy,"Homo sapiens, pH 6.2, 25 °C, GdnHCl, Fluorescence, N-(2-acetamino)iminodiacetic acid (ADA) 20 mM, NaCl 0.1 M, reversible: yes",5.24 kcal/mol
Fibroblast growth factor 2 wild type (sequence not shown),Tm,"Homo sapiens, pH 7.2, Thermal, CD, Sodium phosphate 6 mM, NaCl 120 mM, reversible: yes",45 °C
Immunoglobulin heavy constant gamma 1 wild type (letters omitted),denaturant m value,[3],1.69 kcal/mol/M and 1.74 kcal/mol/M
same,unfolding free energy,[3],5.2 kcal/mol and 5.4 kcal/mol
same,Tm,"Homo sapiens, pH 7.4, Thermal, CD, PBS, transition: 2",52.6 °C
Lysozyme C wild type (chain not printed),Tm,"Gallus gallus, pH 3.8, Thermal, CD, Unknown, reversible: yes",74.3 °C
Lysozyme C wild type (letters omitted),denaturant m value,[4],2.48 kcal/mol/M
same,unfolding free energy,[4],4.84 kcal/mol
same,denaturant m value,[5],1.26 kcal/mol/M
same,unfolding free energy,[5],3.63 kcal/mol
same,denaturant m value,[6],2.53 kcal/mol/M
same,unfolding free energy,[6],5.79 kcal/mol
Lysozyme C wild type (no sequence given),Tm,[7],55 °C
same,unfolding enthalpy (calorimetric),[7],102 kcal/mol
same,denaturant m value,[8],2.63 kcal/mol/M
same,unfolding free energy,[8],11.1 kcal/mol
same,Tm,"Gallus gallus, pH 7, Thermal, CD, Potassium phosphate 66 mM, reversible: yes",74.8 °C
same,Tm,"Gallus gallus, pH 7, Thermal, CD, phosphate 66 mM, reversible: yes",74.8 °C
same,heat capacity change of unfolding,[9],1.5 kcal/mol/K
same,unfolding free energy,[9],3.6 kcal/mol and 5 kcal/mol and 4.8 kcal/mol
Lysozyme C wild type (sequence left out),Tm,"Gallus gallus, pH 2.7, Thermal, DSC, glycine-HCl 50 mM, reversible: yes",65.6 °C
same,unfolding free energy,"Gallus gallus, pH 3, 25 °C, Thermal, DSC, glycine 0.05 M, reversible: yes",11 kcal/mol
same,Tm,[10],72.5 °C
same,heat capacity change of unfolding,[10],1.48 kcal/mol/K
same,unfolding enthalpy (calorimetric),[10],117 kcal/mol
same,Tm,[11],74.8 °C
same,unfolding enthalpy (van 't Hoff),[11],93.7 kcal/mol
Lysozyme C wild type (sequence not shown),Tm,[12],52 °C
same,heat capacity change of unfolding,[12],1.55 kcal/mol/K
same,unfolding enthalpy (calorimetric),[12],91.2 kcal/mol
same,unfolding enthalpy (van 't Hoff),[12],89.5 kcal/mol
same,unfolding free energy,"Gallus gallus, pH 3.8, 25 °C, Thermal, DSC, glycine-HCl 50 mM, reversible: Unknown",12.9 kcal/mol
same,Tm,[13],77.5 °C
same,heat capacity change of unfolding,[13],1.51 kcal/mol/K
same,unfolding enthalpy (calorimetric),[13],129 kcal/mol
same,unfolding free energy,"Gallus gallus, pH 5.4, 20 °C, LiCl, Absorbance, Unknown, reversible: Unknown",20 kcal/mol
same,denaturant midpoint (higher = more stable),"Gallus gallus, pH 5.5, 35 °C, GdnHCl, Fluorescence, sodium acetate 0.1 M, HCl, reversible: Unknown",3.4 M
Triosephosphate isomerase wild type (sequence left out),unfolding free energy,"Oryctolagus cuniculus, pH 7.4, 25 °C, GdnHCl, Fluorescence, phosphate 50 mM, reversible: Unknown",17 kcal/mol and 16.5 kcal/mol
